# In PubChem BioAssay AID1347120 (National Center for Advancing Translational Sciences (NCATS), 2019):
# Hit rate of the full screen: of about 390,000 compounds, about 930 (0.24%) were called active. This list was built around the results that the source calls inconclusive (neither active nor inactive); the mix of calls is not that of the screen. The call rests on the fitted dose curve; in most records, active means well fitted activation curve with a large enough effect; inconclusive means small, poorly fitted or top-dose-only effect; inactive means no such curve, though single readings can be large or run the other way. Potencies of inconclusive entries are doubtful fits and often do not repeat.
# Assay: qHTS for Suppressors of FUS Proteinopathy: Primary screen using FUS-linked yeast assay; further: nearly all actives have a fitted effect of over 55% in size;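 on growth rescue (activation): plate controls were DMSO vehicle for no effect and reference control for full effect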
# Conditions: S. cerevisiae FUS-expressing, OD600, 24 h; Potency: growth rescue; growth rescue (activation): at 76.6 µM (top of the series)
# Method in brief: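 Toxicity suppression screen in FUS-yeast. Cells induced with 2% galactose, starting OD 0.005, treated 24hr at 30C with compounds at multiple final concentrations; growth by OD600.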
# Potency means the concentration at half of the fitted maximal effect; tags describe the fitted curve by direction and shape.
SMILES,Potency,growth rescue (activation)
O=S(=O)(Nc1cc(S(=O)(=O)N2CCOCC2)ccc1NCC1CCCO1)c1ccccc1F (centres undefined),"inconclusive: 22.4 µM [activator, partial curve, poor fit]",–
Cc1ccc(N2CC(C(=O)Nc3cccnc3)CC2=O)cc1C (centres undefined),"inconclusive: 8.91 µM [activator, partial curve, poor fit]",–
CN(C)c1ccc(N=Nc2ccccc2C(=O)OCC(=O)N2CCCCCC2)cc1,"inconclusive: 20 µM [activator, partial curve]",–
COc1ccccc1N(C)S(=O)(=O)c1ccc(C(=O)Nc2cc(F)ccc2C)cc1,"inconclusive: 20 µM [activator, partial curve, poor fit]",–
Cc1cc(N2CCN(Cc3ccccc3)CC2)n2nc(C)nc2n1,–,inactive: 14.7%
Oc1c(C(c2ccccc2Cl)N2CCCC2)sc2nc(-c3ccco3)nn12 (centres undefined),–,inactive: 28.8%
O=C(CN1CCN(C(=O)c2ccc(-c3nc4ccccc4s3)o2)CC1)Nc1ccc(F)cc1,–,inactive: 32.5%
COc1ccc(S(=O)(=O)N2CCC(Oc3ccc(-n4cnnn4)cc3)CC2)cc1OC,–,inactive: 44.4%
CSc1ncccc1C(=O)Nc1cccc(S(=O)(=O)N(C)c2ccccc2)c1,"inconclusive: 35.5 µM [activator, single point]",–
O=C(CSc1nnc(C2COc3ccccc3O2)o1)N1CCOCC1 (centres undefined),"inconclusive: 7.08 µM [activator, single point]",–
Oc1c(-c2cc(-c3ccco3)[nH]n2)ccc2ccccc12,–,inactive: 16.1%
CN(Cc1ccccc1)C(=O)c1cccc(NC(=O)Cc2ccc(NC(=O)C3CCN(C(=O)CCc4ccccc4)CC3)cc2)c1,"inconclusive: 25.1 µM [activator, single point]",–
COC(=O)C1CN(Cc2ccc(OC)cc2)CCS(=O)(=O)N1Cc1ccccc1 (centres undefined),–,inactive: 26.6%
CC(C)C[C@H](NC(=O)c1[nH]cnc1C(=O)N[C@@H](C)C(=O)OC(C)(C)C)C(=O)OCc1ccccc1,"inconclusive: 8.91 µM [activator, partial curve, poor fit]",–
COc1ccc(OC)c(CCNC(=O)c2ccc3c(=O)[nH]c4c(C(=O)NC(C)C)sc(=S)n4c3c2)c1,–,inactive: -2.18%
CC1=NN(c2ccc(C)cc2C)C(=O)C1C(c1cccc(O)c1)C1C(=O)N(c2ccc(C)cc2C)N=C1C (centres undefined),"inconclusive: 15.8 µM [activator, partial curve]",–
COc1ccc(CCNC(=O)c2ccc3c(c2)N(Cc2ccccc2F)C(=O)c2ccccc2S3(=O)=O)cc1OC,active: 20 µM,–
COc1cccc(CNC(=O)C23CN(Cc4ccccc4)CC2C(c2ccc([N+](=O)[O-])cc2)=NO3)c1 (centres undefined),"inconclusive: 22.4 µM [activator, single point]",–
CCOC(=O)c1ccc(NC(=O)c2cn(-c3ccccc3)nc2-c2ccncc2)cc1,–,inactive: 18.7%
COc1ccc(-c2nnc(SCC(=O)NCc3ccc(C)cc3)nc2-c2ccc(OC)c(OC)c2)cc1OC,"inconclusive: 28.2 µM [activator, single point]",–
CC12CC3CC(C)(C1)CC(Nc1nc(N4CCOCC4)nc4ccccc14)(C3)C2,–,inactive: 1.91%
N#C/C(=C\c1ccc([N+](=O)[O-])cc1)c1ccccn1,–,inactive: -27.4%

SMILES,Potency,growth rescue (activation)
Cc1cc(/C=C2/NC(=O)N(Cc3ccccc3F)C2=O)c(C)n1-c1ccccn1,"inconclusive: 50.1 µM [activator, single point]",–
Cc1oc2ncnc(N3CCCCC3)c2c1C(=O)N1CCN(c2cccc(C(F)(F)F)c2)CC1,"inconclusive: 25.1 µM [activator, single point]",–
CCc1ccccc1N1C(=O)N(Cc2ccc(C#N)cc2)c2ccccc2S1(=O)=O,"inconclusive: 15.8 µM [activator, partial curve]",–
N#Cc1c(NC(NC(=O)c2ccco2)C(=O)c2ccccc2)sc2c1CCCC2 (centres undefined),–,inactive: 35.3%
CCCC(=O)N1c2ccccc2C(N(C(C)=O)c2ccccc2)CC1C (centres undefined),"inconclusive: 7.08 µM [activator, partial curve, poor fit]",–
CCOc1ccc(CCNC(=O)c2cn(CC)c3ccc(S(=O)(=O)N4CCc5ccccc5C4)cc3c2=O)cc1OCC,"inconclusive: 3.55 µM [activator, full curve]",–
Cc1cccc(C(O)(C(=O)NNc2ccc3ccccc3n2)c2cccc(C)c2)c1,"inconclusive: 35.5 µM [activator, single point]",–
Cc1cc(C(=O)NCc2ccc3c(c2)OCO3)ccc1[N+](=O)[O-],–,inactive: -1.93%
CCc1ccccc1-n1c(SCC(=O)Nc2ccc3c(c2)OCCO3)nc2[nH]ncc2c1=O,"inconclusive: 39.8 µM [activator, partial curve, poor fit]",–
O=C(CSc1nnc(COc2ccccc2Cl)o1)NC(=O)NC1CCCC1,"inconclusive: 22.4 µM [activator, single point]",–
CC(=O)c1c(C)[nH]c(C(=O)Nc2ccc(Cl)cc2)c1C,"inconclusive: 0.794 µM [activator, partial curve, poor fit]",–
Cc1ccc(-n2c(SCc3cccc4ccccc34)nnc2-c2ccccn2)cc1,"inconclusive: 28.2 µM [activator, partial curve, poor fit]",–
COc1ccc(CN(C(=O)/C=C/c2ccco2)C2CCS(=O)(=O)C2)cc1OC (centres undefined),"inconclusive: 50.1 µM [activator, single point]",–
Cc1ccc(-n2ncc(C(=O)NCc3ccccc3C)c2-n2cccc2)cc1,–,inactive: 9.75%
NC(=O)c1nsc(C(=O)N(c2cccc(F)c2)C(C(=O)NCc2ccccc2)c2ccc(O)cc2)c1N (centres undefined),"inconclusive: 35.5 µM [activator, partial curve, poor fit]",–
COc1ccc(-c2[nH]c3ccccc3c2SCCNC(=O)c2cc(OC)c(OC)c(OC)c2)cc1,"inconclusive: 15.8 µM [activator, single point]",–
COc1ccc(Cl)cc1NC(=O)c1c(NCc2ccc(C)o2)sc2c1CCCCC2,"inconclusive: 50.1 µM [activator, single point]",–
O=[N+]([O-])c1ccc(N2CCNCC2)cc1Sc1nc2ccccc2[nH]1,"inconclusive: 22.4 µM [activator, partial curve]",–
O=C(CSc1nnnn1C1CCCCC1)N1c2ccccc2Sc2ccccc21,"inconclusive: 11.2 µM [activator, single point]",–
COc1cccc(CSc2nc3ccccc3c3nc(CCn4c(C)nc5ccccc54)nn23)c1,–,inactive: -12.4%
COC(=O)/C(C#N)=C/c1c(N2CCN(c3ccccc3)CC2)nc2ccccn2c1=O,"inconclusive: 35.5 µM [activator, single point]",–
COc1ccc(-c2ccc(-c3noc(-c4ccco4)n3)c(OC)n2)cc1,"inconclusive: 15.8 µM [activator, partial curve]",–

SMILES,Potency,growth rescue (activation)
Nc1c(-c2nc(-c3cccs3)no2)nnn1-c1ccc(Cl)cc1,–,inactive: -15.5%
O=C(NCC(=O)N(c1ccc(F)cc1)C(C(=O)NCC1CCCO1)c1ccccc1)c1ccco1 (centres undefined),"inconclusive: 3.55 µM [activator, partial curve, poor fit]",–
CCn1c(C(=O)NCCc2ccc(OC)c(OC)c2)cc2sc(Cl)cc21,"inconclusive: 22.4 µM [activator, single point]",–
C=CCN1C(=O)C(=O)N(CC(=O)c2ccc3c(c2)CCCC3)C1=O,"inconclusive: 25.1 µM [activator, partial curve]",–
c1ccc2nc3c(nc2c1)[nH]c1ccccc13,–,inactive: 26.7%
COCC(=O)N[C@@H]1C[C@@H]2O[C@@H](CO)CC[C@@H]2O[C@@H]1CCc1ccc(-c2ccccc2)cc1,"inconclusive: 20 µM [activator, partial curve]",–
COc1ccc(Cl)cc1C(=O)Nc1sc2c(c1C(=O)OC(C)C)CCCC2,–,inactive: 1.61%
CCOC(=O)[C@]12CCCCC/C=C\1N(Cc1ccc(OC)cc1)C(=O)[C@H]2CC(=O)NCCCCc1ccccc1,"inconclusive: 0.891 µM [activator, full curve, poor fit]",–
O=C(C1CC1)N1CCc2cc(Br)cc(S(=O)(=O)N3CCN(c4cccc(C(F)(F)F)c4)CC3)c21,–,inactive: -29.4%
CCOc1cc(/C=C2\C(=O)ON=C2c2ccccc2)ccc1OC,–,inactive: 4.11%
Cc1ccn2c(=O)c(C(=O)O)cnc2c1,"inconclusive: 6.31 µM [activator, partial curve, poor fit]",–
COC(=O)C1(Cc2ccccc2)NC(c2ccccc2C)C2C(=O)N(c3ccc4c(c3)OCO4)C(=O)C21 (centres undefined),"inconclusive: 50.1 µM [activator, single point]",–
COc1ccccc1CCNC(=O)C(=O)NCC1OCCN1S(=O)(=O)c1ccc([N+](=O)[O-])cc1 (centres undefined),"inconclusive: 22.4 µM [activator, partial curve]",–
CCN(C(=O)COC(=O)c1ccc([N+](=O)[O-])o1)c1cccc2ccccc12,"inconclusive: 25.1 µM [activator, partial curve, poor fit]",–
CCOC(=O)C1=C(O)CSC1=Nc1ccc(Cl)cc1,–,inconclusive: 51.3% [activator]
CCOC(=O)C1(Cc2ccccc2)CCN(Cc2cccc(C#N)c2)CC1,–,inactive: 5.61%
CCC(C(=O)Nc1cc(Cl)ccc1OC)n1nc(-c2ccccc2)ccc1=O (centres undefined),"inconclusive: 39.8 µM [activator, single point]",–
Fc1ccc(C(Nc2ccccn2)c2c[nH]c3ccccc23)cc1 (centres undefined),–,inactive: -22.7%
CCOc1ccc(-n2c(SCC(=O)c3ccc4ccccc4c3)nnc2-c2ccco2)cc1,–,inactive: 36.9%
Cc1ccc(Nc2c(-c3c[nH]c4ccccc34)nc3cc(C)ccn23)cc1,"inconclusive: 31.6 µM [activator, single point]",–
